Reference: US20260132200A1 (Regeneron, published 2026)
Changes are numbered by the printed parent chain.

B1: H1H7269P (monovalent 1-arm) (other)
VH: QVQLVESGGGLVQPGRSLRLSCAASGFKFDDYTMHWVRQGPGKGLEWVSDISWSGGSIDYTDSVKGRFSISRDNAKNSLYLQMNSLRVEDTALYYCVKDKSGYGKYSYGLDVWGQGTTVTVSS
VL: [letters of about 100 residues not shown]
B2: H1H7204P (monovalent 1-arm) (other)
VH: EVQLVESRGALVQPGRSLRLSCAASGFAFNDYTMHWVRQAPGKGLEWVSDISWNSNSKDYADSVKGRFTISRDNAKNSLYLQMNSLRAEDTALYYCVKDGSGYGKFSLYALDVWGQGTTVTVSS
VL: [letters of about 100 residues not shown]
B3: H1H7242P (monovalent 1-arm) (other)
VH: EVQLVESGGGLVQPGRSLRLSCAASGFTFDDYTMHWVRQGPGKGLEWVSDIGWNSNSIGYADSVKGRFTISRDNAKNSLYLQMNSLRPEDTALYFCVKDKSGYGKFFIGLDVWGQGTMVTVSS
VL: [letters of about 100 residues not shown]
B4: H1H7196P (monovalent 1-arm) (other)
VH: EVQLVESGGGMVQPGRSLRLSCAASGFPFNDYTMHWVRQVPGRGLEWVSDISWNSGSKGYADSVKGRFIISRDNAKNSLYLQMNSLRVEDTALYYCVKDGSGYGRFHYYAMDVWGQGTTVTVSS
VL: [letters of about 100 residues not shown]
B5: H1H7195P (monovalent 1-arm) (other)
VH: EVQLVESGGGLVQPGRSLRLSCAASGFTFADYTMHWVRQAPGKGLEWVSDISWNSGSIAYADSVKGRFTISRDNAKNSLYLQMNSLRTEDTAFYYCAKDSRGYGHYKYLGLDVWGQGTTVTVSS
VL: [letters of about 100 residues not shown]
B6: H1H7194P (monovalent 1-arm) (other)
VH: B5 VH with A30G, I58K, A59D, H105L, K107Y, Y108H
VL: [letters of about 100 residues not shown]
B7: H1H7223P (monovalent 1-arm) (other)
VH: QVQLVESGGGLVQPGRSLRLSCAASGFTFADYTMHWVRQAPGKGLEWVSDISWNSGSMGYADSVKGRFTISRDNAKKSLYLQMNSLRTEDTALYYCAKDGSGYGKYFFYAMDVWGQGTTVTVSS
VL: [letters of about 100 residues not shown]
B8: H1H7208P (monovalent 1-arm) (other)
VH: QVQLVESGGGLVHPGRSLRLSCAASGFKFDDYTMHWVRQAPGKGLEWVSDISWNSGSKGYADSVKGRFTISRDNAKDSLYLQMDSLRAADTAFYYCAKDKSGYGHFYYYAMDVWGQGTTVTVSS
VL: [letters of about 100 residues not shown]
B9: H1H7232P (monovalent 1-arm) (other)
VH: B8 VH with Q1E, K28T, K58R, K76E, D77N, D84N, A89E, F93L, F106Y
VL: [letters of about 100 residues not shown]
B10: H1H7241P (monovalent 1-arm) (other)
VH: B3 VH with D30A, S57T, T69A, F95Y, F107Q, I108Y, M118T
VL: [letters of about 100 residues not shown]
B11: H1H7203P (monovalent 1-arm) (other)
VH: B7 VH with Q1E, E6Q, A40T, D50G, M58K, G59D, K77N, D99Y, K105R
VL: [letters of about 100 residues not shown]
B12: H1H7251P (monovalent 1-arm) (other)
VH: EVQLVESGGGLVQPGRSLRLSCAASGFTFADYTMHWVRQGPGTGLEWVSDIGWSGGSLGYADSVKGRFTISRDNAKNSLYLEMNNLRPEDTALYYCVKDKSGYGKFQYGLDVWGQGTTVTVSS
VL: [letters of about 100 residues not shown]
B13: H1H7211P (monovalent 1-arm) (other)
VH: EVQLVESGGGLVHPGRSLRLSCTASGFKFADYTMHWVRQAPGKGLEWVSDISWNSGSKGYADSVKGRFTISRDNDKNSLYLQMNSLRGEDTALYYCAKDGSGYGRFHFYAIDVWGQGTTVTVSS
VL: [letters of about 100 residues not shown]
B14: H1H7221P (monovalent 1-arm) (other)
VH: EVQLVESGGGLVQPGRSLRLSCVASGFTFDDYSMHWVRQAPGKGLEWVSGISWNSGSKDYADSVKGRFTISRDNAKNSLYLQMNSLRAEDTALYYCAKYGSGYGKFYHYGLDVWGQGTTVTVSS
VL: [letters of about 100 residues not shown]
B15: H1H7198P (monovalent 1-arm) (other)
VH: B14 VH with V23A, D30A, S33T, A40V, G50D, S78F, A97V, H108F, G110A, L111M
VL: [letters of about 100 residues not shown]
B16: H1H7254P (monovalent 1-arm) (other)
VH: B3 VH with L11V, T28K, D31G, S57T
VL: [letters of about 100 residues not shown]
B17: H1H7258P (monovalent 1-arm) (other)
VH: B3 VH with E1Q, S57T, K76R, F95Y, F107Q, I108Y, M118T
VL: [letters of about 100 residues not shown]
B18: H1H7226P (monovalent 1-arm) (other)
VH: B7 VH with Q1E, E6Q, A30S, A40G, M58K, A61T, T88A, A97V, F107H, T119L
VL: [letters of about 100 residues not shown]
B19: H1H7233P (monovalent 1-arm) (other)
VH: EVQLVESGGGLVQPGGSLRLSCEASGFTFADYTLHWVRQAPGKGLEWVSDISWNSGTRGYADSVRGRFTISRDNAKKSLYLQMNSLRSEDTALYYCVKDGSGYGRYNFYAMDVWGQGTTVTVSS
VL: [letters of about 100 residues not shown]
B20: H1H7250P (monovalent 1-arm) (other)
VH: B3 VH with E1Q, S57T, I58K
VL: [letters of about 100 residues not shown]

Molecular target: T1, human CD3 expressed on cells (Jurkat, a CD3+ human T-cell line; human T cells) (human, UniProt P07766 23-126; P04234 22-100)
T1 chain 1: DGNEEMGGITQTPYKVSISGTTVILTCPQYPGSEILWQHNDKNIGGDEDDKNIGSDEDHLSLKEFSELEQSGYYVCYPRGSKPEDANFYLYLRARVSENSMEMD
T1 chain 2: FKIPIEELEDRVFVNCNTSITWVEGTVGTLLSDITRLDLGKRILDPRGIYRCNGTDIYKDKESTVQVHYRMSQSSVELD
Experiment: cell-based or functional assay

Binder	U937 Cytotoxicity Human T-cells [M] (EC50)
B1	1.08e-11
B2	1.08e-11
B3	7.5e-12
B4	1.96e-11
B5	6.1e-12
B6	4.71e-12
B7	5.3e-12
B8	4.59e-11
B9	9.96e-12
B10	1.23e-11
B11	5.47e-12
B12	1.81e-12
B13	7.89e-12
B14	9.21e-12
B15	5.21e-12
B16	4.18e-12
B17	1.53e-11
B18	1.04e-11
B19	1.19e-11
B20	5.91e-12
